Results as given in PubChem BioAssay AID1963982 (Molecular Pharmacology Branch, DTP, NCI, 2024).
For part of its entries the source gives two or more results. This is not the full list of results. The source may hold further records. Values that stand side by side are repeated measurements across runs, samples, wells, individuals or studies.

Tested on: 313798-341-R-J2-PDC spheroids, viability
Assay: Anticancer human tumor 313798-341-R-J2-PDC patient-derived cervical squamous cell carcinoma cell line growth inhibition [PI3K]
Details: spheroids with HUVEC and MSC; for viability, T/C: stronger effect = lower value; for IC50: compound alone
Text: Combinatorial screen of targeted agents with the PI3K inhibitors inavolisib, alpelisib, duvelisib, and copanlisib in multi-cell type tumor spheroids
A high-throughput screen of multi-cell type tumor spheroids was designed to identify active combinations of targeted small molecules and PI3K pathway inhibitors. Complex spheroids include a stromal component modeled by human endothelial cells (HUVEC) and fibroblasts modeled by human mesenchymal stem cells (MSCs). The concentration ranges selected for each drug and investigational agent were based upon clinically achievable concentrations if the clinical Cmax of the agent was known.
Compounds. The drugs and investigational agents: inavolisib (NSC800729), alpelisib (NSC765974), duvelisib (NSC772469), copanlisib (NSC816437), ipatasertib (NSC767898), afuresertib (NSC778305), talazoparib (NSC767125), sapanisertib (NSC764658), selumetinib (NSC741078), tovorafenib (DAY101, NSC766906), vemurafenib (NSC761431), ravoxertinib (NSC781343), sotorasib (NSC818433), MRTX1133 (NSC 836407), abemaciclib (NSC 768073), palbociclib (NSC758247), venetoclax (NSC 766270), SY5609 (NSC837396), enzalutamide (NSC755605), and darolutamide (NSC825331), were obtained from the National Cancer Institute (NCI) Developmental Therapeutics Program Chemical Repository. The FDA-approved anticancer drug set is available from the NCI Developmental Therapeutics Program. […] The stock solutions were prepared in dimethyl sulfoxide (DMSO, Sigma-Aldrich, St. Louis, MO, cat. D2650) at 800-fold the tested concentration and stored at -70 degrees C prior to their use. All drugs and investigational agents were tested over a range starting from a high concentration at or near the clinical Cmax and decreasing in half-log increments. If the clinical Cmax for an agent had not been determined, the highest concentration tested was 10 microM.
Cell Culture. All cells were maintained in an incubator at 37 degrees C and 5% CO2 with 95% humidity. The PDC lines were cultured according to standard operating procedures established by the NCI PDMR (https://pdmr.cancer.gov/sops/default.htm). All PDCs were thawed and cultured in Matrigel-coated flasks prepared with a working solution of 1X Ham's F-12 nutrient mix, without supplementation (Invitrogen, Waltham, MA, cat. 11765054), 100 U/mL penicillin-streptomycin (Invitrogen, cat. 15140122), and 2.5% Matrigel (Corning Inc., Corning, NY, cat. 354248) for the first three passages. The 354836-022-R-J1-PDC, 475296-252-R-J1-PDC, and 997726-040-R-J2-PDC lines were cultured in 6A media, which includes advanced DMEM/F-12 (Thermo Fisher Scientific, cat. 12634028), 10 mM HEPES (Thermo Fisher Scientific, cat. 15630080), 1X GlutaMAX supplement (Thermo Fisher Scientific, cat. 35050061), 0.1 mg/mL primocin (InvivoGen, San Diego, CA, cat. ant-pm-2), 10% defined fetal bovine serum, heat inactivated (HyClone Laboratories Inc., Logan, UT, cat. SH30070.03HI), 50% L-WRN conditioned media (ATCC, cat. CRL-3276), 1.25 mM N-Acetyl-L-cysteine (Sigma-Aldrich, cat. A9165), 10 mM nicotinamide (Sigma-Aldrich, cat. N0636), 1X B-27 supplement (Thermo Fisher Scientific, cat. 17504044), 1X N-2 supplement (Thermo Fisher Scientific, cat. 17502048), and 10 microM Y-27632 dihydrochloride (Tocris Bioscience, Bristol, United Kingdom, cat. 1254). The 624824-186-R-J2-PDC line was cultured in 6C/Colon 1B media, which includes all 6A media components plus 50 ng/mL human EGF recombinant protein (Thermo Fisher Scientific, cat. PHG0311). […]
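Note: spheroids exposed to compounds for seven days.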
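Throughout, for viability, T/C: 100% = DMSO vehicle control viability.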

SMILES: CC1(C)CCC(Nc2ncc(C(F)(F)F)c(-c3c[nH]c4c(P(C)(C)=O)c(C#N)ccc34)n2)CN1 (stereo not given)
- viability, T/C (compound alone 10 µM): 70.1, 32.7, 64.8, 40.1%
- IC50: > 10 µM, 31.6 nM, < 31.6 nM

SMILES: CC(Nc1ccc2c(c1)OCCn1cc(N3C(=O)OCC3C(F)F)nc1-2)C(N)=O (stereo not given)
- viability, T/C (compound alone 0.1 µM): 80.9, 100, 94.1, 82.1, 109, 96.4, 105, 91.9%

SMILES: CC1(C)CCC(CN2CCN(c3ccc(C(=O)NS(=O)(=O)c4ccc(NCC5CCOCC5)c([N+](=O)[O-])c4)c(Oc4cnc5[nH]ccc5c4)c3)CC2)=C(c2ccc(Cl)cc2)C1
- viability, T/C (compound alone 10 µM): 20, 19.3, 44.6, 102%
- IC50: 5.41 µM, 5.14 µM, 8.4 µM, > 10 µM

SMILES: Cn1cnc2c(F)c(Nc3ccc(Br)cc3Cl)c(C(=O)NOCCO)cc21
- viability, T/C (compound alone 0.949 µM): 96.3, 63.5, 86.5, 93.5%
- viability, T/C (compound alone 3 µM): 86.1, 22.1, 80.4, 81%

SMILES: CCN1CCN(Cc2ccc(Nc3ncc(F)c(-c4cc(F)c5nc(C)n(C(C)C)c5c4)n3)nc2)CC1
- viability, T/C (compound alone 0.00316 µM): 104, 96.6, 114, 88.8%

SMILES: Cn1ncnc1[C@H]1c2n[nH]c(=O)c3cc(F)cc(c23)N[C@@H]1c1ccc(F)cc1
- viability, T/C (compound alone 0.000316 µM): 97.4, 105, 87.2, 114%

SMILES: C[C@@H](NC(=O)c1ncnc(N)c1Cl)c1ncc(C(=O)Nc2cc(C(F)(F)F)c(Cl)cn2)s1
- viability, T/C (compound alone 10 µM): 108, 7.04, 97.8, 118%
